Hit rate of the full screen: of about 350,000 compounds, about 9,900 (2.8%) were called active. The inconclusive results got no clear call from the source; some entries with a clear call stand among them for comparison. The call rests on the fitted dose curve; in most records, active means well fitted activation curve with a large enough effect; inconclusive means small, poorly fitted or top-dose-only effect; inactive means no such curve, though single readings can be large or run the other way. No potency is given beside an inconclusive call; the fits are too rough.
Experiment: A quantitative high throughput screen for small molecules that induce DNA re-replication in MCF 10a normal breast cells. Further: nearly all actives have a fitted effect of over 50% in size. On activity, positive = re-replication: % of control where 0% means no effect.
Conditions: MCF 10A DNA re-replication, Hoechst nuclear intensity, 48 h; activity, positive = re-replication: at 46.1 µM (top of the series)
Potency means the concentration at half of the fitted maximal effect; tags describe the fitted curve by direction and shape.

| Structure (SMILES) | Potency | activity, positive = re-replication |
| --- | --- | --- |
| COc1ccc(CCNC(=O)C2CCN(Cc3nc(-c4ccccc4F)oc3C)CC2)cc1OC | inactive |  |
| C=C(C)COc1ccc(-c2[nH]ncc2-c2ccc(OC)cc2)c(O)c1 | inconclusive [activator, single point] |  |
| Cc1ccc(C(=O)Nc2cccc(O)c2)cc1S(=O)(=O)N1CCCCCC1 | inconclusive [activator, single point] |  |
| COC(=O)C1=C(N)Oc2cc(N(C)C)ccc2C1c1ccccc1OC (stereo not drawn) | active: 9.2 µM |  |
| O=C1OC(C(=O)NCc2ccccc2)Cc2ccccc21 (stereo not drawn) | inconclusive [activator, single point] |  |
| N#Cc1ccsc1NC(=O)CN1CCN(c2ccc(O)cc2)CC1 | inconclusive [activator, partial curve, poor fit] |  |
| Cc1cc2cc(C(c3nnnn3Cc3ccco3)N3CCc4ccccc43)c(=O)[nH]c2cc1C (stereo not drawn) | inconclusive [activator, partial curve, poor fit] |  |
| CNC(=O)/C(C#N)=C/c1cccc(Oc2ccccc2)c1 | inconclusive [activator, single point] |  |
| O=C(NCC(c1ccco1)N1CCCCC1)c1ccc(COc2ccc(Cl)cc2)cc1 (stereo not drawn) | inconclusive [activator, single point] |  |
| O=C(N/N=C/c1ccco1)c1cc2ccccc2o1 | inconclusive [activator, single point] |  |
| O=c1c2ccccc2ncn1CCCSc1ccccc1 | inconclusive [activator, single point] |  |
| O=C(NCCCN1CCOCC1)C(=O)N/N=C/c1c2ccccc2cc2ccccc12 | inconclusive [activator, single point] |  |
| C=C(C)COc1ccc(-c2ncncc2-c2ccccc2OC)c(O)c1 | inconclusive [activator, single point] |  |
| Cc1cc(Nc2ccc(C(C)C)cc2)n2ncnc2n1 | inactive |  |
| O=C(Cn1cnc2c(NCc3ccccc3)ncnc21)NCc1ccc2[nH]ccc2c1 | inconclusive [activator, full curve, poor fit] |  |
| COc1ccc(CCNC(=O)c2cccc(NS(=O)(=O)c3ccccc3F)c2)cc1OC | inactive |  |
| Cc1ccc(C)c(NC(=S)/C(=C(\[O-])c2ccc(Cl)s2)[n+]2ccccc2)c1 | active: 0.651 µM |  |
| CC(C)c1nc2scc(-c3ccc(Cl)cc3)c2c(=O)n1N | inconclusive [activator, partial curve] |  |
| COc1ccccc1CNc1cc(-c2ccccc2)ccc1OC | inconclusive [activator, partial curve] |  |
| O=C(COC(=O)c1cccnc1Nc1ccccc1F)NCCN1C(=O)CSC1=O | inconclusive [activator, full curve, poor fit] |  |
| CC(=O)c1sc2c(c1OC(=O)c1ccc(Cl)cc1)c(=O)n(-c1ccccc1)c(=S)n2-c1ccccc1 | inconclusive [activator, full curve, poor fit] |  |
| Cc1ccc(O)c(C(=O)/C=C/c2ccc3c(c2)OCCO3)c1 | inconclusive [activator, single point] |  |
| CCC(c1nnnn1C1CCCCC1)N(Cc1ccco1)Cc1cc2ccc(OC)cc2[nH]c1=O (stereo not drawn) | inconclusive [activator, single point] |  |

| Structure (SMILES) | Potency | activity, positive = re-replication |
| --- | --- | --- |
| Cc1ccc(OCC(=O)c2cc(C)n(-c3ccccc3)c2C)c([N+](=O)[O-])n1 | inconclusive [activator, single point] |  |
| CCC(C)NC(=O)CSc1c2c(nc3ccccc13)CCCC2 (stereo not drawn) | inconclusive [activator, single point] |  |
| CC(C)(C)C(=O)N1CCN(C(=O)c2ccco2)CC1 | inactive |  |
| Cc1ccc2c(O)c(Cc3ccccc3)c(=O)[nH]c2n1 | inactive |  |
| Cc1ccc(NC(=O)C2CCCN2C(=O)OCc2ccccc2)c(C)c1 (stereo not drawn) | inconclusive [activator, single point] |  |
| O=C(Cn1ccc(NC(=O)OCc2ccccc2)nc1=O)NCCCc1ccccc1 | inconclusive [activator, single point] |  |
| O=C(O)c1ccc(N2CC3CC(C2)c2cccc(=O)n2C3)c(NC(=S)Nc2ccc(Br)cc2)c1 (stereo not drawn) | inactive |  |
| Cc1cc2oc(=O)cc(CN3CCCc4ccccc43)c2cc1C | inconclusive [activator, single point] |  |
| O=C(N/N=C/c1cn(-c2ccccc2)nc1-c1cccnc1)c1ccccc1 | active: 11.6 µM |  |
| CCOC(=O)c1cc2c(=O)[nH]ccc2nc1C | inactive |  |
| Cc1cc2c(c(=O)n1CCc1ccccc1)C(C(C)C)C(C#N)=C(N)O2 (stereo not drawn) | inconclusive [activator, partial curve, poor fit] |  |
| CCOC(=O)C(O)C1CCc2c([nH]c3ccc(C)cc23)C1=O (stereo not drawn) | inconclusive [activator, full curve, poor fit] |  |
| Nc1nc(Cl)nc2c1ncn2C1CC(O)C(CO)O1 (stereo not drawn) | inconclusive [activator, full curve, poor fit] |  |
| COC(=O)c1c(NC(=O)c2cccs2)sc2c1CCCC2 | inactive |  |
| CN1CCN(C2=Cc3cc(Cl)ccc3Sc3cc(F)ccc32)CC1 | active: 12.6 µM |  |
| CCCCCCCC(=O)Nc1cc(C(=O)NCc2ccc(C)cc2)ccc1N1CCC2(CC1)CC(c1cccc(Br)c1)=NO2 | inactive |  |
| Cc1cc(C)c(OCCCCN(C)C)c(Br)c1 | inconclusive [activator, partial curve, poor fit] |  |
| CC1CCc2c(sc3nc(CN4CCOCC4)nc(NS(=O)(=O)c4cccc([N+](=O)[O-])c4)c23)C1 (stereo not drawn) | inconclusive [activator, partial curve, poor fit] |  |
| CCC(C)(C)NC(=O)C(c1ccc(OC)cc1)N(Cc1ccco1)C(=O)CCC(=O)Nc1cc(C)on1 (stereo not drawn) | inconclusive [activator, partial curve, poor fit] |  |
| [N-]=[N+]=NC[C@H](c1ccccc1)N1CCN(Cc2ccccc2)CCC1=O | inactive |  |
| CC1(C)CC(=O)C2=C(C1)OC(N)=C(C#N)C2C#Cc1ccccc1 (stereo not drawn) | active: 8.91 µM |  |
| Cc1nc(N2CCN(C(=O)c3cccs3)CC2)c2c3c(sc2n1)CCCC3 | inconclusive [activator, single point] |  |
| Cc1nc(NC(=O)COC(=O)/C=C/c2ccco2)c(Cl)cc1Cl | inconclusive [activator, partial curve, poor fit] |  |

| Structure (SMILES) | Potency | activity, positive = re-replication |
| --- | --- | --- |
| CCc1ccccc1NC(=O)C1CCN(S(C)(=O)=O)CC1 | inactive |  |
| CCN1CCN(C(=S)Nc2sc(C)c(-c3ccccc3)c2C(=O)OC)CC1 | inconclusive [activator, full curve, poor fit] |  |
| N/C(=N\c1nc2ccccc2o1)NC(=O)c1ccc(Cl)cc1 | inconclusive [activator, full curve, poor fit] |  |
| N#Cc1cc([N+](=O)[O-])ccc1Oc1ccc(-c2nnco2)cc1 |  | inconclusive: -21.4% [activator] |
| CCc1ccc(NC(=O)c2ccccc2SC)cc1 | inactive |  |
| CCCCn1c(=O)n(CC(=O)Nc2ccc(OC)c(Cl)c2)c(=O)c2c1nc(CO)n2CCC | inactive |  |
| N#CCC(=O)Nc1ccc(C(=O)OCC(=O)Nc2ccc3ccccc3c2)cc1 | inconclusive [activator, partial curve, poor fit] |  |
| Cc1nc2c(c(C)c1C#N)C(=O)c1ccccc1-2 | inconclusive [activator, full curve, poor fit] |  |
| COc1cccc(-c2ccc3c(c2)C2CC3CCN2C(C)=O)c1 (stereo not drawn) | inactive |  |
| O=C(CCNC(=O)C1CCN(S(=O)(=O)c2ccccc2)CC1)NCc1cccc(Cl)c1 | inconclusive [activator, single point] |  |
| Cc1cccc(N2C(=O)c3cccc4c(N5CCCCC5)c([N+](=O)[O-])cc(c34)C2=O)c1C | inconclusive [activator, full curve, poor fit] |  |
| Cc1nnc(SCc2cc(=O)[nH]c(/N=C(\N)Nc3ccccc3Sc3ccccc3)n2)s1 | inactive |  |
| CCn1nc(C)cc1C(=O)Sc1ccc(C)cc1 | inconclusive [activator, single point] |  |
| COc1ccccc1COC(=O)N/C=C/c1ccco1 | inconclusive [activator, single point] |  |
| CCCCOc1cccc(C(=O)Nc2ccc(NC(=O)c3ccco3)cc2)c1 | inconclusive [activator, single point] |  |
| O=C(/C=C/c1ccncc1)c1cc(Cl)ccc1O | inconclusive [activator, single point] |  |
| CCOC(=O)N1CCN(C(=S)NC(=O)c2nn(C)cc2Br)CC1 | inactive |  |
| Cc1c(CNCCC2=CCCCC2)c(C(=O)O)c(C)n1Cc1ccccc1 | inconclusive [activator, single point] |  |
| CCOC(=O)C1C(=O)CC(O)(c2ccccc2)CC1c1ccccc1 (stereo not drawn) | inactive |  |
| CCOc1cc(/C=C2\COc3ccccc3C2=O)cc(Br)c1OCC(=O)N(C)C | inconclusive [activator, single point] |  |
| C[C@H]1CS(=O)(=O)CCN1/N=C\c1ccc([N+](=O)[O-])o1 | inactive |  |
| COc1ccccc1/C=C/C1=NC(=C\C=C/c2ccccc2)/C(=O)O1 | inconclusive [activator, single point] |  |

Source: PubChem BioAssay AID624296 (National Center for Advancing Translational Sciences (NCATS), 2012)
